Reference: the supplement of paper PMC11417369
± gives the standard deviation of the averaged measurements. This is one part of the list.

Test system: PfAP2-G AP2 domain (GST-tagged)
Experiment: gcPBM binding intensity (ln(normalized median fluorescence intensity)); higher = stronger DNA binding
How it was run: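 DNA-binding domains from P. falciparum, fused to GST and produced in E. coli, were put on an Agilent 4 × 180k double-stranded probe array for 1 h in 1× PBS holding 1% milk, 0.2 mg/ml BSA, 0.5% salmon testes DNA and 0.03% Triton X-100. Probes were primer-extended, 36 bp long and drawn from intergenic genomic regions, with negative controls included. After Alexa488 anti-GST antibody detection and a 488 nm scan, binding intensity was set as the highest Masliner-normalised natural-log median intensity across replicate spots of either probe orientation.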

Sequence	gcPBM binding intensity (ln)
TCAGATATATAGAATACACACATGGATATAAGAAAT [CACACA_site7831]	10 ± 0.028
ATAGATCCTAATGTTGTGCACATGTAAATTAATATA	10.6 ± 0.28
TTTATACAATAAAATGCATGCAAGTATCTATTTTAT [TGCATGCA_site210]	10 ± 0.28
AAATTGGGTACAAATACACACACATATATATATTAA [CACACA_site8745]	11.2 ± 0.89
TATAATGAACATATGTGTACATATATTTTTTAAATT [XGTACX_site8736]	11.4 ± 0.72
AAAAAACAAAAAAAAAAAAAAATAATACAATATAAT [CACACA_negctrl_site1630]	9.49 ± 0.099
ACCATATAAATAAACACACACACACCGATATATATA [CACACA_site5310]	10 ± 0.16
GCACAACATATATTATCACACACATATATATATATA [CACACA_site8619]	10.3 ± 0.56
CGCGAAGTAGCATTCACACACAGCAAAATATAAATA [CACACA_site7608]	10.02 ± 0.035
CAAAAGAATATATGTAGTACATGTTGTAGATAATAT [XGTACX_site1044]	11.5 ± 0.93
TTAATATGAAATAAATGTACATAATACATAATAAAA [XGTACX_site6194]	11.1 ± 0.67
AACACGCGCGGACACACACACACACCCACATATATA [CACACA_site5252]	11.4 ± 0.89
GTTTTTAGTATTTTTTGTACTTAATACATAGCCTTA [XGTACX_site7318]	11 ± 0.65
AATTGAAAAATATATAAGAAGAAATATATATATGTT [GTGCAC_negctrl_site97]	9.8 ± 0.15
AAAATAAGTAATTACTAATATATAAATTAATAATTA [CACACA_negctrl_site1602]	9.62 ± 0.014
AATATAAATTAATTTACACACTAAAAAATATATATA [CACACA_site3778]	9.915 ± 0.035
ATTTATATCTCCATATGTTCAAAACTTTCACAAATA [TGCATGCA_negctrl_site108]	10 ± 0.12
TATTAACAAATTTATGTGCACTGAGGACAAATATAT	11 ± 0.59
CCTTAATATTTTTGAAGTACATATTTATTTTACAAG [XGTACX_site3049]	11.4 ± 0.86
AAATAGAAGAAATATGCACACATACATTGAAATGTT [CACACA_site7996]	9.95 ± 0.028
TTTTCTTCATAAATGCTGCACTGGTTTAAGCATGAT	9.83 ± 0.099
TTTATTAATAAACACACACACACACCCAAAATAAAA [CACACA_site7966]	10.4 ± 0.37
AAAGAAAAAAAAATTACACACATATATTATATATAT [CACACA_site3211]	9.72 ± 0.071

Sequence	gcPBM binding intensity (ln)
AAATCAGAACCTATTTGTACATATACAAAAATGATT [XGTACX_site2421]	10.8 ± 0.52
TATGTATTCATATGTTGTACATTATATATAATAAGT [XGTACX_site6589]	11.2 ± 0.79
AGCACACAAAAAAAAAAAAAAAAAAAAAAAGGAATG [GTGCAC_negctrl_site73]	10.03 ± 0.092
ATTTTTTTAAGATAAGAAAAATAAAGTGTGGATATT [XGTACX_negctrl_site476]	10.2 ± 0.21
TTTTAATTAGCTAGACGTACAATAATATACAAATAT [XGTACX_site6068]	11.5 ± 0.95
CATATGTAGGGAACAATATAATATGCTTTGAATATG [GTGCAC_negctrl_site524]	10.2 ± 0.14
TTCCTTATTATTATTTTACACACGTCCTAATAAGAG [CACACA_site8364]	10.4 ± 0.4
GCTTGTACATTTTTAAAAAATGACTTCGAAAGGAAT [CACACA_negctrl_site453]	11 ± 0.69
TTTATGCATAGAGAAACATGCAAGAAAGATGCAAAA [TGCATGCA_site726]	10 ± 0.13
ATATATTTATATATATGTACATATTATGTTAAGAAA [XGTACX_site1111]	11.1 ± 0.58
ATTATGTATACATAAACACACATATTTATAAAAAAA [CACACA_site6261]	10.2 ± 0.16
TGTATATATATCTCAGTGCATTGCAAATTAAAAATT [GTGCAC_site9646]	9.88 ± 0.13
ATACTCACGTGACACACACACAATATAAATAAATAT [CACACA_site7862]	10.4 ± 0.4
AAAAAAAAACAGAAAACACACAAATTATCTTATAAT [CACACA_site4326]	9.61 ± 0.3
TATAATAATCTAATCTGTAGTTTTTTTTTTTTTTTT [CACACA_negctrl_site1206]	9.99 ± 0.14
GGCTTTTTTTAATATGCACACATATATTTTATATAT [CACACA_site8647]	10.1 ± 0.11
ATATTACTATATTATTGTACGTTAAAAAAAAAAAAT [XGTACX_site8734]	11.3 ± 0.8
ATAAAAATAAACATACGTACTTACACGAATATACAT [XGTACX_site5989]	11.1 ± 0.65
CTTGAAAAAATAAAAACACACAATGTGTTTTTGAAT [CACACA_site3283]	9.71 ± 0.11
TTAGATTTAAATATCATACACACTTTATATATAATA [CACACA_site959]	9.74 ± 0.14
TTTCTAAATAATTATAATGAATCTGCAAACAAGCAT [XGTACX_negctrl_site391]	9.57 ± 0.028
TTATATTAAAAAAGATGTACGTTTAGGAAAAATATA [XGTACX_site7456]	11.2 ± 0.69
AATAAATAAATAAATAAATATATATATATATATATA [GTGCAC_negctrl_site224]	9.88 ± 0.67

Sequence	gcPBM binding intensity (ln)
TATATATTTATTTATAGTACACTATTTATGAAAACC [XGTACX_site3062]	11.3 ± 1.1
CATTATTATTAACATACACACGTGTTATATACCCCC [CACACA_site9365]	11 ± 0.61
TAACATAAATTTAGGAGTACACTTTTTATACATACA [XGTACX_site4066]	11.7 ± 1
AAAAATTTTTTTTTTTTTTTAAATAATAAAAATGAA [CACACA_negctrl_site1435]	9.63 ± 0.099
TATTATTATTTTATGGTGCAAAAAAAAAAAAAAAAA	10.1 ± 0.61
AACATACGACAATACGCACACATATCTGTACATATT [CACACA_site5115]	11.3 ± 0.65
TTTATATATTTTGTCGTGCACATTTGGAAAATTACA [GTGCAC_site9776]	10.4 ± 0.4
AAATTCACAATGTTTGGTACACATAAAAAAAAAAGA [XGTACX_site7109]	11.2 ± 0.9
TATTTTTAAAATTAAATGAATAAATAAATAAATATA [XGTACX_negctrl_site553]	9.54 ± 0.11
AATAAAATGGAATACGGTACACATAATCCTAAAATG [XGTACX_site926]	11 ± 0.63
ATATTATAAAATAAAAGTACACAATTATATATATAT [XGTACX_site8812]	11.4 ± 0.93
TTTATATTTATTGTTGTGCACAGAACCATATTCGTT	10.6 ± 0.42
TATCACTATAGACAAGCATGCATATGTACTAATATC [TGCATGCA_site1020]	11 ± 0.79
TGCAGTCTGGAGAAACGTACACAGTATCTGGTAACA [XGTACX_site2014]	11.3 ± 0.79
ATGTGTATAATTAAATGTACATATATATATATATAT [XGTACX_site829]	11.2 ± 0.42
CTTTTATTCAAAAGATGTACTTAAATATATATCTAA [XGTACX_site4326]	11.2 ± 0.76
ATATATATCGGACACACACACATGTTTTAAAACTAT [CACACA_site4218]	10.9 ± 0.64
TTAAACTTGAGACACACACACACACGGATATAAAAA [CACACA_site6495]	10.3 ± 0.18
ATTTGAAATTGGTAGACACACAATAAAATATCAAAA [CACACA_site447]	10.2 ± 0.33
AAAAAGTTATTATGAACACACATTTATTATAGTCAT [CACACA_site6838]	9.94 ± 0.014
CATATAAATATTTGTGCACACAATTATTAATAATTA [CACACA_site3884]	10.6 ± 0.34
ATATATATAAAATGTTGTACATATATATAAATAATA [XGTACX_site1661]	11.1 ± 0.73
TTAAAATAGGGCGAAGAAATTTTCTGTAAACATTTG [CACACA_negctrl_site1010]	9.985 ± 0.078

Sequence	gcPBM binding intensity (ln)
ATATGCTTATATTATATATATAAGTCTATATATTTT [XGTACX_negctrl_site349]	9.58 ± 0.11
GGGTTTTTAAAATGTAGTACATATGTAAACATCAAA [XGTACX_site1262]	11.4 ± 0.94
CTAAAATACAGACACACACACACATATATATATATA [CACACA_site4150]	10.2 ± 0.31
TGAATATTTCTATATACACACATATATATATATATA [CACACA_site3451]	10.2 ± 0.49
TTTAATAATAATAAAAGTACACAAATATAAAGGAAA [XGTACX_site5203]	11.5 ± 0.69
CATAAATAAGCTTTAGTGCATTATATTTAAATTTTT	9.725 ± 0.049
ATAAAATGAACCTTTTGTACATATATATATATATAT [XGTACX_site4610]	10.8 ± 0.52
ATATTATATATATATAAACACACAAATATTTTTATA [CACACA_site8486]	9.97 ± 0.014
AACATCTCATATCGTACTACACTCATATATATATAT [XGTACX_site170]	11.1 ± 0.58
TCACGTATGTATATTACACACATACATATTATTCAC [CACACA_site4276]	9.975 ± 0.064
AGGTTTTCTTAAATAGTGCATTATAACAAAAATAAA	10.2 ± 0.35
TTTCATTTGTCGTTATGTACTTATTAAATATTATTA [XGTACX_site7709]	11.4 ± 0.81
AAACAATAAAAGATTACACACATATATAGCATCTAT [CACACA_site5012]	9.63 ± 0.38
TAAAGTAAAGACATACTTATTTTCCATCCACTTCTT [CACACA_negctrl_site1288]	10 ± 0.18
CACATACAGACATACACACATACACATATACGCATA [CACACA_site1745]	10.2 ± 0.13
TCTGTATATTTCGCGCGTACGAACAAATTGATAATT [XGTACX_site7965]	11.2 ± 0.76
ATATAATATGGTATTACACACTGTTAAAAGTATGGC [CACACA_site5190]	10.11 ± 0.049
ATATATATTTTTATAACACACAATGAAGTACATTAC [CACACA_site8270]	11.4 ± 0.96
TTTATATTTATATATACACACATATACATCCTATTT [CACACA_site3079]	10 ± 0.16
ATATATATGGAAACAGTGCAATACATATATATATAT	10.3 ± 0.42
ATATAGAACACCTGTGCATGCAAGTGCTAAAAAATT [TGCATGCA_site213]	10.2 ± 0.2
